According to patent US8648074B2, “Substituted octahydropyrrolo[1,2-a]pyrazine sulfonamides as calcium channel blockers” (AbbVie Inc., priority 2011, dated 2014):

Biological target: human Cav2.2 (Homo sapiens, UniProt Q00975)
Assay: In vitro assessment of calcium channel activity using FLIPR (Ca2+ influx in IMR32 cells)
Type: cell-based
Settings: IMR32 cells endogenously expressing human Cav2.2; Calcium 4 dye, 60 minute pre-incubation, 2 μM nifedipine, depolarized with 80 mM KCl; average of at least two runs unless marked *
Procedure: The IMR32 cells were maintained in MEM media containing 10% (v/v) FBS, 1% (v/v) antibiotic/antimitotic, 1% (v/v) sodium pyruvate and 1% (v/v) MEM NEAA. Following dissociation in 0.05% (v/v) trypsin/EDTA, cells were seeded into black 1×96-well plates (Corning Cellbind) at a density of 1−1.2×10^5 cells/well and incubated in the maintenance media above for 48 hours at 37° C. Immediately prior to performing the assay the media was removed and cells were loaded for 1.5 hours with 1× Calcium 4 dye prepared in HBSS (137 mM NaCl, 5.4 mM KCl, 0.25 mM Na2HPO4, 0.44 mM KH2PO4, 1.3 mM CaCl2, 1 mM MgSO4, 4.2 mM NaHCO3) containing HEPES pH 7.4 at room temperature. After dye loading and a subsequent 60 minute pre-incubation with compounds (full log dilutions from 10 μM to 0.1 nM) in the presence of 1.3 mM CaCl2 and 2 μM nifedipine to block endogenous L-type channels, the external Ca^2+ concentration was increased to 5 mM CaCl2 and the cells concomitantly depolarized with 80 mM KCl to assay channel activity. To determine the IC50 values, the percent inhibition of the compound at each concentration was determined relative to the activity in the absence of inhibitor, and data was fitted using non-linear regression sigmoidal dose response curve analysis with GraphPad Prism®. Unless otherwise indicated (*), the reported values are average values from at least two runs (i.e., n≧2).

Compound: O=S(=O)(c1cc(C(F)(F)F)ccc1N1CCOCC1)N1CCN2C[C@H](Oc3cnc(C4CC4)cn3)C[C@H]2C1 [Example 178, (7R,8aS)-7-[(5-cyclopropylpyrazin-2-yl)oxy]-2-{[2-(morpholin-4-yl)-5-(trifluoromethyl)phenyl]sulfonyl}octahydropyrrolo[1,2-a]pyrazine]
- IC50: 3020 nM

Compound: COc1ccc(S(=O)(=O)N2CCN3C[C@H](Oc4cnc(C5CC5)cn4)C[C@H]3C2)cc1C [Example 170, (7R,8aS)-7-[(5-cyclopropylpyrazin-2-yl)oxy]-2-[(4-methoxy-3-methylphenyl)sulfonyl]octahydropyrrolo[1,2-a]pyrazine]
- IC50: 2640 nM

Compound: O=S(=O)(c1cncc(C2CC2)c1)N1CCN2C[C@H](Oc3cnc(C4CC4)cn3)C[C@H]2C1 [Example 74, (7R,8aS)-7-[(5-cyclopropylpyrazin-2-yl)oxy]-2-[(5-cyclopropylpyridin-3-yl)sulfonyl]octahydropyrrolo[1,2-a]pyrazine]
- IC50: 4530 nM

Compound: O=S(=O)(c1cc(Br)cc(C(F)(F)F)c1)N1CCN2C[C@H](Oc3cnc(C4CC4)cn3)C[C@H]2C1 [Example 112, (7R,8aS)-2-{[3-bromo-5-(trifluoromethyl)phenyl]sulfonyl}-7-[(5-cyclopropylpyrazin-2-yl)oxy]octahydropyrrolo[1,2-a]pyrazine]
- IC50: 5890 nM

Compound: O=S(=O)(c1cccc(C(F)(F)F)c1)N1CCN2C[C@H](Oc3ccc(C(F)(F)F)nc3)C[C@H]2C1 [Example 84, (7R,8aS)-2-{[3-(trifluoromethyl)phenyl]sulfonyl}-7-{[6-(trifluoromethyl)-pyridin-3-yl]oxy}octahydropyrrolo[1,2-a]pyrazine]
- IC50: 400 nM

Compound: O=S(=O)(c1ccc(C(F)(F)F)cc1)N1CCN2C[C@H](Oc3ccc(C(F)(F)F)nc3)C[C@H]2C1 [Example 228, (7R,8aS)-2-{[4-(trifluoromethyl)phenyl]sulfonyl}-7-{[6-(trifluoromethyl)-pyridin-3-yl]oxy}octahydropyrrolo[1,2-a]pyrazine]
- IC50: 654 nM

Compound: O=S(=O)(c1cccc(C(F)(F)F)c1)N1CCN2C[C@H](Oc3cnc(Cl)c(C(F)(F)F)c3)C[C@H]2C1 [Example 82, (7R,8aS)-7-{[6-chloro-5-(trifluoromethyl)pyridin-3-yl]oxy}-2-{[3-(trifluoromethyl)phenyl]sulfonyl}octahydropyrrolo[1,2-a]pyrazine]
- IC50: 750 nM

Compound: O=S(=O)(c1cccc(F)c1N1CCCCC1)N1CCN2C[C@H](Oc3cnc(C4CC4)cn3)C[C@H]2C1 [Example 96, (7R,8aS)-7-[(5-cyclopropylpyrazin-2-yl)oxy]-2-{[3-fluoro-2-(piperidin-1-yl)-phenyl]sulfonyl}octahydropyrrolo[1,2-a]pyrazine]
- IC50: 780 nM

Compound: O=S(=O)(c1cc(F)cc(C(F)(F)F)c1)N1CCN2C[C@H](Oc3cnc(C4CC4)cn3)C[C@H]2C1 [Example 51, (7R,8aS)-7-[(5-cyclopropylpyrazin-2-yl)oxy]-2-{[3-fluoro-5-(trifluoromethyl)phenyl]sulfonyl}octahydropyrrolo[1,2-a]pyrazine]
- IC50: 1390 nM

Compound: O=S(=O)(Cc1cccc(C(F)(F)F)c1)N1CCN2C[C@H](Oc3cnc(C4CC4)cn3)C[C@H]2C1 [Example 218, (7R,8aS)-7-[(5-cyclopropylpyrazin-2-yl)oxy]-2-{[3-(trifluoromethyl)-benzyl]sulfonyl}octahydropyrrolo[1,2-a]pyrazine]
- IC50: 16000 nM

Compound: O=S(=O)(c1cccc(C(F)(F)F)c1)N1CCN2C[C@@H](Oc3ccc(C(F)(F)F)nc3)C[C@H]2C1 [Example 77, (7S,8aS)-2-{[3-(trifluoromethyl)phenyl]sulfonyl}-7-{[6-(trifluoromethyl)-pyridin-3-yl]oxy}octahydropyrrolo[1,2-a]pyrazine]
- IC50: 330 nM

Compound: O=S(=O)(c1ccc(Cl)c(C(F)(F)F)c1)N1CCN2C[C@H](Oc3cnc(C4CC4)cn3)C[C@H]2C1 [Example 171, (7R,8aS)-2-{[4-chloro-3-(trifluoromethyl)phenyl]sulfonyl}-7-[(5-cyclopropylpyrazin-2-yl)oxy]octahydropyaolo[1,2-a]pyrazine]
- IC50: 5740 nM

Compound: N#Cc1ccc(O[C@@H]2C[C@H]3CN(S(=O)(=O)c4cccc(C(F)(F)F)c4)CCN3C2)nc1 [Example 85, 6-{[(7R,8aS)-2-{[3-(trifluoromethyl)phenyl]sulfonyl}octahydropyrrolo[1,2-a]pyrazin-7-yl]oxy}nicotinonitrile]
- IC50: 960 nM

Compound: O=S(=O)(c1cc(C(F)(F)F)ccc1Br)N1CCN2C[C@H](Oc3cnc(C4CC4)cn3)C[C@H]2C1 [Example 134, (7R,8aS)-2-{[2-bromo-5-(trifluoromethyl)phenyl]sulfonyl}-7-[(5-cyclopropylpyrazin-2-yl)oxy]octahydropyaolo[1,2-a]pyrazine]
- IC50: 11100 nM

Compound: O=S(=O)(c1ccc(F)cc1F)N1CCN2C[C@H](Oc3cnc(C4CC4)cn3)C[C@H]2C1 [Example 62, (7R,8aS)-7-[(5-cyclopropylpyrazin-2-yl)oxy]-2-[(2,4-difluorophenyl)-sulfonyl]octahydropyrrolo[1,2-a]pyrazine]
- IC50: 1380 nM

Compound: CCCc1ccc(S(=O)(=O)N2CCN3C[C@H](Oc4cnc(C5CC5)cn4)C[C@H]3C2)cc1 [Example 157, (7R,8aS)-7-[(5-cyclopropylpyrazin-2-yl)oxy]-2-[(4-propylphenyl)-sulfonyl]octahydropyrrolo[1,2-a]pyrazine]
- IC50: 1360 nM

Compound: O=S(=O)(c1cccc(C(F)(F)F)c1)N1CCN2C[C@H](Oc3cncc(C(F)(F)F)c3)C[C@H]2C1 [Example 231, (7R,8aS)-2-{[3-(trifluoromethyl)phenyl]sulfonyl}-7-{[5-(trifluoromethyl)-pyridin-3-yl]oxy}octahydropyrrolo[1,2-a]pyrazine]
- IC50: 383 nM

Compound: 2-chloro-5-{[(7R,8aS)-7-[(5-cyclopropylpyrazin-2-yl)oxy]hexahydropyrrolo[1,2-a]pyrazin-2(1H)-yl]sulfonyl}benzonitrile [Example 68]
- IC50: 1040 nM

Compound: O=S(=O)(c1ccc2c(c1)CCO2)N1CCN2C[C@H](Oc3cnc(C4CC4)cn3)C[C@H]2C1 [Example 114, (7R,8aS)-7-[(5-cyclopropylpyrazin-2-yl)oxy]-2-(2,3-dihydro-1-benzofuran-5-ylsulfonyl)octahydropyrrolo[1,2-a]pyrazine]
- IC50: 6810 nM

Compound: O=S(=O)(c1cccc(C(F)(F)F)c1)N1CCN2C[C@H](Oc3cncc(C4CC4)n3)C[C@H]2C1 [Example 23, (7R,8aS)-7-[(6-cyclopropylpyrazin-2-yl)oxy]-2-{[3-(trifluoromethyl)phenyl]-sulfonyl}octahydropyrrolo[1,2-a]pyrazine]
- IC50: 790 nM

Compound: O=S(=O)(c1cc(Cl)ccc1Cl)N1CCN2C[C@H](Oc3cnc(C4CC4)cn3)C[C@H]2C1 [Example 152, (7R,8aS)-7-[(5-cyclopropylpyrazin-2-yl)oxy]-2-[(2,5-dichlorophenyl)-sulfonyl]octahydropyrrolo[1,2-a]pyrazine]
- IC50: 1150 nM

Compound: O=S(=O)(c1ccc(C(F)(F)F)cc1)N1CCN2C[C@H](Oc3ccc(C4CC4)nn3)C[C@H]2C1 [Example 45, (7R,8aS)-7-[(6-cyclopropylpyridazin-3-yl)oxy]-2-{[4-(trifluoromethyl)-phenyl]sulfonyl}octahydropyrrolo[1,2-a]pyrazine]
- IC50: 3040 nM

Compound: O=S(=O)(c1cc(Cl)ccc1F)N1CCN2C[C@H](Oc3cnc(C4CC4)cn3)C[C@H]2C1 [Example 124, (7R,8aS)-2-[(5-chloro-2-fluorophenyl)sulfonyl]-7-[(5-cyclopropylpyrazin-2-yl)oxy]octahydropyrrolo[1,2-a]pyrazine]
- IC50: 3050 nM
